Source: PMC12820563, “FoxP3 forms a head-to-head dimer in vivo and stabilizes its multimerization on adjacent microsatellites”
Some of the results follow.

Target: T1, MBP-FoxP1dN (Mus musculus, UniProt P58462 326-579)
T1 sequence: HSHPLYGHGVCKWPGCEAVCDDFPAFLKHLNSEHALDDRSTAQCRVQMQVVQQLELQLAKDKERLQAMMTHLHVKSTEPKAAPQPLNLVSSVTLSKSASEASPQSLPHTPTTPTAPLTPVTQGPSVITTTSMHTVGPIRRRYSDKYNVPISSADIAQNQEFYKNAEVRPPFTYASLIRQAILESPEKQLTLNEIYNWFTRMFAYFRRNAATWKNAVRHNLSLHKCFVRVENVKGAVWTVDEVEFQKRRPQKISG
Experiment: PD-seq (MBP pull-down with sequencing); 20 mM Tris-HCl pH 7.5, 100 mM NaCl, 1.5 mM MgCl2, 0.4 uM protein, 0.1 uM dsDNA library, 30 min, room temperature, amylose pull-down; high values mean tight binding
Details: protein: recombinant; tags: His6-MBP; chain copies: 2; dsDNA, one strand shown
Outline: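 Binding is given as reads-per-million enrichment, pull-down over input, with replicates pooled. The bait was an N-terminus-lacking mouse FoxP3 or FoxP1 fragment with a His6-MBP tag, expressed in E. coli and used at 0.4 µM with 0.1 µM Klenow-filled degenerate double-stranded DNA library for 30 min at room temperature in Tris pH 7.5 buffer with NaCl and MgCl2. Amylose resin pull-down with three washes was followed by proteinase K release, PCR barcoding and Illumina sequencing.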

Going from “GATGATTGTTCTCCCAGCTGATGAATTGATGAGTTCGAGTAAACAAATTTTCCTAATCTTTCTGTTCAAGCGCCATCTAC” to “GATGATTGTTCTCCCAGCTGATGAATTCCGGGTGTCGAGTAAACAAATTTTCCTAATCTTTCTGTTCAAGCGCCATCTAC”, the binding signal falls from 1.01 RPM ratio (pull-down/input) to 0.748 RPM ratio (pull-down/input).

Compared with “GATGATTGTTCTCCCAGCTGATGAATTTCAAAGATCGAGTAAACAAATTTTCCTAATCTTTCTGTTCAAGCGCCATCTAC”, “GATGATTGTTCTCCCAGCTGATGAATTAAATCAATCGAGTAAACAAATTTTCCTAATCTTTCTGTTCAAGCGCCATCTAC” is higher in binding signal: 0.87 RPM ratio (pull-down/input) for the first, 1.01 RPM ratio (pull-down/input) for the second.

Going from “GATGATTGTTCTCCCAGCTGATGAATTCCGCGCCTCGAGTAAACAAATTTTCCTAATCTTTCTGTTCAAGCGCCATCTAC” to “GATGATTGTTCTCCCAGCTGATGAATTGCTCATCTCGAGTAAACAAATTTTCCTAATCTTTCTGTTCAAGCGCCATCTAC”, the binding signal rises from 0.852 RPM ratio (pull-down/input) to 0.978 RPM ratio (pull-down/input).

First: GATGATTGTTCTCCCAGCTGATGAATTATCAAGGTCGAGTAAACAAATTTTCCTAATCTTTCTGTTCAAGCGCCATCTAC
Second: GATGATTGTTCTCCCAGCTGATGAATTAGGAACTTCGAGTAAACAAATTTTCCTAATCTTTCTGTTCAAGCGCCATCTAC
The binding signal of the first is higher: 0.91 RPM ratio (pull-down/input) for the first, 0.84 RPM ratio (pull-down/input) for the second.

Going from “GATGATTGTTCTCCCAGCTGATGAATTACTTAAATCGAGTAAACAAATTTTCCTAATCTTTCTGTTCAAGCGCCATCTAC” to “GATGATTGTTCTCCCAGCTGATGAATTGATCTGTTCGAGTAAACAAATTTTCCTAATCTTTCTGTTCAAGCGCCATCTAC”, the binding signal falls from 1.24 RPM ratio (pull-down/input) to 0.987 RPM ratio (pull-down/input).

Going from “GATGATTGTTCTCCCAGCTGATGAATTAACTCGTTCGAGTAAACAAATTTTCCTAATCTTTCTGTTCAAGCGCCATCTAC” to “GATGATTGTTCTCCCAGCTGATGAATTGGCCGGATCGAGTAAACAAATTTTCCTAATCTTTCTGTTCAAGCGCCATCTAC”, the binding signal falls from 0.871 RPM ratio (pull-down/input) to 0.771 RPM ratio (pull-down/input).

Compared with “GATGATTGTTCTCCCAGCTGATGAATTGTGATATTCGAGTAAACAAATTTTCCTAATCTTTCTGTTCAAGCGCCATCTAC”, “GATGATTGTTCTCCCAGCTGATGAATTTAATCTGTCGAGTAAACAAATTTTCCTAATCTTTCTGTTCAAGCGCCATCTAC” is lower in binding signal: 1.38 RPM ratio (pull-down/input) for the first, 0.927 RPM ratio (pull-down/input) for the second.

First: GATGATTGTTCTCCCAGCTGATGAATTCAAATCGTCGAGTAAACAAATTTTCCTAATCTTTCTGTTCAAGCGCCATCTAC
Second: GATGATTGTTCTCCCAGCTGATGAATTTTTGGCCTCGAGTAAACAAATTTTCCTAATCTTTCTGTTCAAGCGCCATCTAC
The binding signal of the first is higher: 0.871 RPM ratio (pull-down/input) for the first, 0.858 RPM ratio (pull-down/input) for the second.

First: GATGATTGTTCTCCCAGCTGATGAATTCCGGTATTCGAGTAAACAAATTTTCCTAATCTTTCTGTTCAAGCGCCATCTAC
Second: GATGATTGTTCTCCCAGCTGATGAATTCCGAACATCGAGTAAACAAATTTTCCTAATCTTTCTGTTCAAGCGCCATCTAC
The binding signal of the first is higher: 0.906 RPM ratio (pull-down/input) for the first, 0.898 RPM ratio (pull-down/input) for the second.

First: GATGATTGTTCTCCCAGCTGATGAATTGATCTGGTCGAGTAAACAAATTTTCCTAATCTTTCTGTTCAAGCGCCATCTAC
Second: GATGATTGTTCTCCCAGCTGATGAATTGCTCCCGTCGAGTAAACAAATTTTCCTAATCTTTCTGTTCAAGCGCCATCTAC
The binding signal of the first is lower: 0.905 RPM ratio (pull-down/input) for the first, 0.978 RPM ratio (pull-down/input) for the second.

First: GATGATTGTTCTCCCAGCTGATGAATTTGCCCGTTCGAGTAAACAAATTTTCCTAATCTTTCTGTTCAAGCGCCATCTAC
Second: GATGATTGTTCTCCCAGCTGATGAATTCAACTCTTCGAGTAAACAAATTTTCCTAATCTTTCTGTTCAAGCGCCATCTAC
The binding signal of the first is lower: 0.889 RPM ratio (pull-down/input) for the first, 0.904 RPM ratio (pull-down/input) for the second.

First: GATGATTGTTCTCCCAGCTGATGAATTTCAACGATCGAGTAAACAAATTTTCCTAATCTTTCTGTTCAAGCGCCATCTAC
Second: GATGATTGTTCTCCCAGCTGATGAATTTCCTCTGTCGAGTAAACAAATTTTCCTAATCTTTCTGTTCAAGCGCCATCTAC
The binding signal of the first is lower: 0.82 RPM ratio (pull-down/input) for the first, 0.834 RPM ratio (pull-down/input) for the second.

First: GATGATTGTTCTCCCAGCTGATGAATTTGACGCTTCGAGTAAACAAATTTTCCTAATCTTTCTGTTCAAGCGCCATCTAC
Second: GATGATTGTTCTCCCAGCTGATGAATTGATCTAATCGAGTAAACAAATTTTCCTAATCTTTCTGTTCAAGCGCCATCTAC
The binding signal of the first is lower: 0.974 RPM ratio (pull-down/input) for the first, 1.19 RPM ratio (pull-down/input) for the second.

Going from “GATGATTGTTCTCCCAGCTGATGAATTGTTTGTCTCGAGTAAACAAATTTTCCTAATCTTTCTGTTCAAGCGCCATCTAC” to “GATGATTGTTCTCCCAGCTGATGAATTACCCGTATCGAGTAAACAAATTTTCCTAATCTTTCTGTTCAAGCGCCATCTAC”, the binding signal falls from 2.6 RPM ratio (pull-down/input) to 0.971 RPM ratio (pull-down/input).

Compared with “GATGATTGTTCTCCCAGCTGATGAATTTGCTCCTTCGAGTAAACAAATTTTCCTAATCTTTCTGTTCAAGCGCCATCTAC”, “GATGATTGTTCTCCCAGCTGATGAATTTGTGGTCTCGAGTAAACAAATTTTCCTAATCTTTCTGTTCAAGCGCCATCTAC” is higher in binding signal: 0.972 RPM ratio (pull-down/input) for the first, 1.05 RPM ratio (pull-down/input) for the second.

“GATGATTGTTCTCCCAGCTGATGAATTGGGACCGTCGAGTAAACAAATTTTCCTAATCTTTCTGTTCAAGCGCCATCTAC” was tested, and the binding signal was 0.804 RPM ratio (pull-down/input).
